41 compounds from ChEMBL document CHEMBL4888484, “Replenishing the malaria drug discovery pipeline: Screening and hit evaluation of the MMV Hit Generation Library 1 (HGL1) against asexual blood stage Plasmodium falciparum ,using a nano luciferase reporter read-out” (2022) can be followed below.

About 540 (0.36%) of roughly 150,000 compounds showed an effect of 50% or more. The list shows a part of the results.

The experiment concerns Plasmodium falciparum. In words: Primary screen in NF54 nanoGlo assay, in single point, at 2uM, 72h; a lower Z score goes with more inhibition. The format is functional, Erythrocyte. As to conditions: timepoint 72 hour.
For `c1c[nH]c(CNc2ccc(N3CCc4sccc4C3)cc2)n1`, the “% Inhibition” value was 23% and the Z score was -3.

For `Cn1ccnc1[C@@]1(CNC(=O)c2c(C3CC3)cnn2C)NC(=O)NC1=O`, the “% Inhibition” value was -20% and the Z score was 2.11.

Turning to `O=S(=O)(Cc1ccon1)N1CCN(Cc2cccnc2)CC1`, the “% Inhibition” value was determined as 39% and the Z score is reported as -5.25.

Take `CCN(C(=O)N[C@H]1CC(=O)N(c2ccc3c(c2)OCCO3)C1)C1CCCCC1`: the “% Inhibition” value was 10% and the Z score was -1.23.

As to `COc1ccc(CNC(=O)c2ccc(-n3nnc4cccnc43)c(C)c2)cc1`, the “% Inhibition” value is 4% and the Z score is -0.49.

With `Clc1cnn(CCc2nc(-c3ccn4c3CCCC4)no2)c1`, the “% Inhibition” value is listed as 7% and the Z score is listed as -1.19.

On to `Cc1ccccc1NS(=O)(=O)c1c(C)sc(C)c1-c1onc(C)c1C`, for which the “% Inhibition” value is on record as -8% and the Z score is reported as 1.34.

For `CC(OC1CCCCCC1)C(=O)N1CCCC(c2nnn[nH]2)C1` (configuration not stated), the “% Inhibition” value is reported as -7% and the Z score turned out to be 1.25.

With `COc1ccc(CN2C[C@@H](O)C[C@H]2c2nnc3n2CCN(C(=O)C(C)C)C3)cc1C`, the “% Inhibition” value was -1% and the Z score came to 0.22.

For the compound `C#CCNC(=O)N(C)CCOCC1CC1`, the “% Inhibition” value came out at 5% and the Z score is -0.77.

For the compound `Cc1cc(C(=O)Nc2nc(-c3ccc4c(c3)CCCC4)cs2)no1`, the “% Inhibition” value turned out to be 2% and the Z score is listed as -0.21.

Regarding `CCCNC(=O)c1coc(CN2CCN(Cc3ccccc3F)CC2)n1`, the “% Inhibition” value is -16% and the Z score is on record as 1.51.

With `CCc1nc(C(C)C)ccc1C(=O)N1CCO[C@@H]2CCN(CC)C[C@@H]21`, the “% Inhibition” value is given as -2% and the Z score was found to be 0.42.

On to `CCc1nc2c(c(N3CCCC3)n1)C1(CCCC1)Cc1ccccc1-2`, for which the “% Inhibition” value was -2% and the Z score came to 0.23.

For the compound `O=C(c1cc2ccccc2o1)N1CCC(COc2cc3c(nn2)CCCC3)CC1`, the “% Inhibition” value is -1% and the Z score was 0.13.

As to `C=CCN(CC(=O)N(CCc1ccccc1)Cc1ccco1)C(=O)Nc1c(C)cccc1C`, the “% Inhibition” value is -17% and the Z score came out at 1.98.

Regarding `COCCCNC(=O)c1cn(CCc2ccccn2)cc(C(=O)NC2CCCCCCC2)c1=O`, the “% Inhibition” value is 1% and the Z score is listed as -0.11.

In the case of `O=C(CCc1ccc(-c2ccccc2)cc1)N[C@H]1CCOC1`, the “% Inhibition” value is given as -15% and the Z score worked out at 1.36.

Turning to `CCc1ccccc1OC(=O)c1csc(C)n1`, the “% Inhibition” value amounted to 2% and the Z score was -0.32.

For `CC(C)(F)C(=O)N1CCC(OCc2ccc(Cl)c(Cl)c2)CC1`, the “% Inhibition” value was 4% and the Z score was -0.36.

`Oc1cc(-n2ccnc2-c2cccnc2)cc(F)c1F`: the “% Inhibition” value was -6% and the Z score was found to be 0.59.

With `Cc1ccnc(C)c1C(=O)N1CCC(N2CCN(c3ncc(C(F)(F)F)cc3Cl)[C@@H](C)C2)CC1`, the “% Inhibition” value is -11% and the Z score is listed as 1.4.

Consider `CCCc1nnc(NC[C@@H]2CCCN3CCCC[C@H]23)o1`, for which the “% Inhibition” value is given as -10% and the Z score was 1.67.

Regarding `Cc1c(C(=O)NCc2nccs2)ccn1C`, the “% Inhibition” value is given as -12% and the Z score turned out to be 2.37.

For `CN1CCC[C@H]1C(=O)N1CCC2(CCC(=O)N(CCc3ccccn3)C2)CC1`, the “% Inhibition” value is on record as -10% and the Z score worked out at 1.29.

In the case of `COc1ccc(C)cc1CN(C)[C@@H](C)C(N)=O`, the “% Inhibition” value is -11% and the Z score is recorded as 1.

As to `Cn1ncnc1COc1ccc(OCc2ccccc2)cc1`, the “% Inhibition” value was 4% and the Z score is given as -0.39.

`CN(Cc1cccnc1)C(=O)[C@@]1(C)CC1(Cl)Cl`: the “% Inhibition” value is -10% and the Z score turned out to be 1.66.

Turning to `CC[C@]1(C)N=C(Nc2cccc3ccccc23)OC1=O`, the “% Inhibition” value was -3% and the Z score is 0.4.

For `COC(=O)c1cc(CNc2ccc(F)cn2)c[nH]1`, the “% Inhibition” value is reported as -3% and the Z score is 0.4.

As for `CN1CCCN(C(=O)CCc2nc3ccccc3o2)CC1`, the “% Inhibition” value is -10% and the Z score is 1.48.

As to `CCOC(=O)N1CCc2c(sc(NCc3cccc(F)c3)c2C(=O)Nc2cc(Cl)ccc2OC)C1`, the “% Inhibition” value is given as -3% and the Z score was determined as 0.54.

As to `Cc1ccc(Cl)cc1NS(=O)(=O)c1cc(-c2cc(C(F)(F)F)on2)sc1C`, the “% Inhibition” value is reported as -4% and the Z score is on record as 0.6.

As to `CC(C)C[C@@H](c1cccnc1)n1cnc2ccncc2c1=O`, the “% Inhibition” value is given as -9% and the Z score is 0.98.

As for `CC1CCN(c2nc(-c3ccc(F)cc3)c3c(N)n(-c4ccc(F)cc4)nc3n2)CC1`, the “% Inhibition” value is given as 1% and the Z score was -0.13.

With `COc1cccc(CNC(=O)c2cnc(-c3csc(C)n3)nc2O)c1`, the “% Inhibition” value is on record as -1% and the Z score is 0.2.

Turning to `Cc1cc(C)nc(NC(=O)c2cccc(S(=O)(=O)N3CCOCC3)c2)n1`, the “% Inhibition” value is listed as -8% and the Z score turned out to be 1.43.

On to `O=C(Nc1cccc(F)c1)N1Cc2cccn2-c2ccccc21`, for which the “% Inhibition” value is given as 11% and the Z score was -1.41.

As to `O=C(C[C@@H]1COC2(C1)CN(S(=O)(=O)c1ccccc1)C2)NCc1ccncc1`, the “% Inhibition” value is -4% and the Z score was found to be 0.57.

Consider `COc1ccc([C@H]2NCCc3c2[nH]c2ccc(OCc4ccccc4)cc32)cc1COc1cccc(C)c1C`, for which the “% Inhibition” value is reported as -5% and the Z score worked out at 0.48.

On to `CCCC1(CO)CCN(C(=O)c2nc(C)c[nH]2)CC1`, for which the “% Inhibition” value came to 2% and the Z score is -0.24.
